From the supplement of paper PMC11417369
The list shows a part of the results.

Test system: PfSIP2 AP2 domain 1 (GST-tagged)
Test: gcPBM binding intensity (ln(normalized median fluorescence intensity)); higher = stronger DNA binding
Method in brief: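 In this array assay, P. falciparum DNA-binding domains with a GST tag, expressed in E. coli, were applied for 1 h to primer-extended double-stranded 36-bp intergenic genomic probes and negative controls on an Agilent 4 × 180k array. Bound protein was visualised with Alexa488 anti-GST antibody at 488 nm. Binding intensity is the highest Masliner-normalised natural-log median intensity across replicate spots of either probe orientation.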

Row | Sequence | gcPBM binding intensity (ln)
1 | TATCATGTCTGTATTTCACACACGGATAATCATTTA [CACACA_site920] | 6.63
2 | ATGTATATAATAAGAACACACATATATTTAATTTAA [CACACA_site2941] | 6.76
3 | TGTTATATTTAATATAGTACATATTATTTTATATAT [XGTACX_site70] | 7.03
4 | AAAAATAAAATATATACATGCATATACATATTATAT [TGCATGCA_site668] | 6.99
5 | ATTTATATGCACCATTGTACGTTTTATAAAGTTTGG [XGTACX_site3755] | 10.7
6 | AGAAAATTAAAAAGAACACACAAATATATATAGAAT [CACACA_site3592] | 7.2
7 | ATACATATATACATACGTACTTATATACATATGTGC [XGTACX_site5268] | 7.16
8 | AAAATAATATTTAATACACACACCAGTTCTGCAAAT [CACACA_site3736] | 6.89
9 | TAATAAGTAAAAAAATGTACCCGTTAGGTTTAATAA [XGTACX_site638] | 6.71
10 | TTTTTCTCTCTCTTATTATACAACAACAAAAAAAAA [GTGCAC_negctrl_site178] | 7.38
11 | AGAAATATATATATATATATATGTGACAATATTTGT [TGCATGCA_negctrl_site282] | 7.6
12 | TTTTTTTATTTTATTTTATTATCTTATGTATCACAA [CACACA_negctrl_site1755] | 6.93
13 | ACAAAAAGGTAATTTACACACTGCATATAGGAATAA [CACACA_site2929] | 6.96
14 | TTTGTTCATATTATTGTGCACTTAAACGTAACAAAA [GTGCAC_site9505] | 10.2
15 | TTTATATTCTTAAGTGTGCACTATATATATATATAT [GTGCAC_site9719] | 10.1
16 | ACCCTATATGTAACTACACACCGCATATTGTTTACT [CACACA_site3071] | 7.37
17 | ATGTATGTATATACTTGTACATATTCATATTAGTAT [XGTACX_site1118] | 6.99
18 | AATGTAGCATTTTATCGTACACTTAATACAAAAAAG [XGTACX_site6214] | 7.02
19 | CAATTACAAAAGAAATGTACTCGTAATAAATAAATA [XGTACX_site1126] | 7.22

Row | Sequence | gcPBM binding intensity (ln)
20 | TGAAATTTTTATACATGTACAAAATTAAATATAACA [XGTACX_site7324] | 7.09
21 | TATAATAATAATAATAGTACGTATTATTAAAAAACT [XGTACX_site10] | 7.03
22 | ATATTACACATATATGCACACATTGTAGTTATTTAT [CACACA_site8843] | 9.43
23 | ATGCACTCATTGTGCACACGCATATTACGAAAAGAA [CACACA_site2638] | 10.2
24 | AAAAAAAAAAAAAACACACACACACCCATACAAAAT [CACACA_site1446] | 7.43
25 | AAGATTTGAAAAAATACACACAATAAAAAAATAAAA [CACACA_site3281] | 7.09
26 | TATATATATATGTGTATACACACCTGATAAAGGTAT [CACACA_site2653] | 9.06
27 | AATAAATAAAAAACATGTACAAATATAATATAGCAT [XGTACX_site6429] | 7.46
28 | TATACATATGAAAATACACACATACATACCTATATA [CACACA_site6888] | 6.97
29 | TATTTAACACCTTATACACACTTTCTTCCTTTTTTA [CACACA_site4590] | 6.95
30 | TAATTGTACGCCAATACACACAGAATTATAATGTAG [CACACA_site6201] | 7.43
31 | GATATTGAGAAAGGGTGTACAAGATATTATACTATA [XGTACX_site3598] | 6.97
32 | AATAGAAAAAAATAAGTGCATTTTGGTATTCATCAT [GTGCAC_site9614] | 8.14
33 | AAATTTATATTCATTTGTACGTAATTTAAATTATAC [XGTACX_site5870] | 7.05
34 | TTTTATGTAATTATTTGTACATATGCCTCTTAAACT [XGTACX_site748] | 6.83
35 | ACATAAATAATAAAAACACACATATGTACATATATA [CACACA_site1913] | 7.15
36 | AAAAAAAAAAAGCACACACACATATGTGTATTTATA [CACACA_site6578] | 6.93
37 | ACAAAATATACAAAATGTACAAAATTTACAAAATGT [XGTACX_site3544] | 6.92
38 | TACTAGCAAATACATACACACACACCCATATACATA [CACACA_site9163] | 7.02

Row | Sequence | gcPBM binding intensity (ln)
39 | GTAATATATACAAAATGTACAAAACAATAACATGAT [XGTACX_site8575] | 7.17
40 | ATCCAAACAAATAAAACATGCATAATATATATATAT [TGCATGCA_site766] | 8.84
41 | ATGCTTTTATAAATAATTAAAAAAAAAAAAAAAAAA [TGCATGCA_negctrl_site533] | 6.82
42 | CTCAAATAATTTTTTACACACATTATTTGAAATAAG [CACACA_site1290] | 7
43 | TTTTTTTTTAATATTTGTACACAACATGAAACATTT [XGTACX_site473] | 6.99
44 | TAAAATATTACGTGTACACATAAATAAAAATAAAAA [CACACA_site5066] | 8.34
45 | TTTTATATTCCACAAAAAATTATATAATAATAGAAC [CACACA_negctrl_site1741] | 7.26
46 | AACACAGATAAATTAACACACACACCCATATATATA [CACACA_site9310] | 7.69
47 | CACATATAGTTATATGCACACATCTTACACATCTAT [CACACA_site5937] | 7.14
48 | ATGAAATATCGGAACGCACACATAAATATATTTATA [CACACA_site2670] | 7.21
49 | TAGCTTATTAATATCATACACACATAGATATATTTA [CACACA_site3105] | 6.92
50 | TTGAACTCTCTTACGCGTACGTGTTATTATGAAAAT [XGTACX_site6265] | 6.88
51 | CAATTTGGGGTGTACACACACCTTATTTAAATTAAA [CACACA_site6663] | 7.19
52 | TATATATATATATGTGCATGTAATGATTCAGCATCT [TGCATGCA_site803] | 9.04
53 | TTACATAATTTCTGCTGTACCAATTTTGAGAAGTTG [XGTACX_site4023] | 6.99
54 | AAAAGGAATATAATCATTCAAAAATATAATATATAT [GTGCAC_negctrl_site551] | 7.1
55 | ATGTAAATATATATATGTACTAATTAGTAGTTTACG [XGTACX_site6271] | 7.25
56 | TTTTATAAATTATAATTCTATTATCTGTTCTTTTTA [TGCATGCA_negctrl_site487] | 6.7
